In all, about 45,000 compounds went through this assay and about 200 (0.44%) were called active. About 7% were inconclusive and are not listed. Calls come from the whole dose curve; as a rule, active = well fitted activation curve with a large enough effect; inconclusive = small, poorly fitted or top-dose-only effect; inactive = no such curve, though single readings can be large or run the other way. The list shows a part of the results.
Potency is the fitted concentration of half-maximal effect.

The nature of this assay: qHTS of TDP-43 Inhibitors: NCGC Sytravon Library Screen. For growth rescue (activation): 0% is about no effect. Note: nearly all actives have a fitted effect of over 55% in size. The settings on record: yeast TDP-43 toxicity rescue, BacTiter-Glo growth, 24 h; series mostly up to 46.1 µM; growth rescue (activation): at the top concentration. In a few lines: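 TDP-43-expressing yeast, pregrown in raffinose, seeded at OD600 0.02 in galactose medium with compound for 24 hr at 30 deg C. Growth read by BacTiter-Glo luminescence, so rescue of toxicity appears as activation.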
A general note: qHTS replaces the single test concentration by a dilution series.
`Oc1ccc(CN2CCC(Cc3ccccc3)CC2)c2cccnc12`: the “growth rescue (activation)” value is inactive: -19.6%.

Take `COc1ccc2c(c1OC)C(=O)OC2Nc1ccccn1` (stereo not drawn): the “growth rescue (activation)” value was inactive: -5.18%.

Turning to `Cc1ccc(-c2nn(-c3ccccc3)cc2C(=O)OCC(=O)Nc2ncc(Cl)cc2Cl)cc1`, the “growth rescue (activation)” value is inactive: -1.16%.

On to `O=C(NC1CCN(Cc2ccccc2)CC1)C1CCN(S(=O)(=O)c2ccc(Cl)cc2)CC1`, for which the “growth rescue (activation)” value is inactive: -4.87%.

Turning to `COc1ccc(C(=O)/C=C/Nc2ccc(S(=O)(=O)Nc3nc(C)cc(C)n3)cc2)c(OC)c1`, the “growth rescue (activation)” value is inactive: 27.5%.

In the case of `COC(=O)c1ccc(NC(=O)c2ccccc2-c2ccccc2C(=O)O)cc1`, the “growth rescue (activation)” value was inactive: 6.6%.

On to `O=C(CCN1C(=O)/C(=C/c2ccccc2Cl)SC1=S)N1CCCC1`, for which the “growth rescue (activation)” value was inactive: -9.34%.

Turning to `Cc1ccc(S(=O)(=O)NCCc2cc3ccc(C)c(C)c3[nH]c2=O)cc1`, the “growth rescue (activation)” value was inactive: 6.93%.

As for `CCOC(=O)c1[nH]c(C)c(CC(C)C)c1C`, the “growth rescue (activation)” value is inactive: 21.2%.

In the case of `CC(C)(C)c1ccc(CC(=O)N2CCC2(C)C(=O)NS(=O)(=O)c2ccc(Cl)cc2)cc1` (stereo not drawn), the “growth rescue (activation)” value was inactive: 6.04%.

Consider `CC(C)C(OC(=O)c1cc2c(s1)CCCCC2)C(=O)NC(N)=O` (stereo not drawn), for which the “growth rescue (activation)” value is inactive: 32.5%.

For the compound `CCOc1ccc(C(=O)N[C@H](C(=O)Nc2ccccc2OC)C(C)C)cc1`, the “growth rescue (activation)” value is inactive: 13%.

As for `O=C(Nc1cccc(S(=O)(=O)N2CCOCC2)c1)c1ccc(=O)[nH]c1`, the “growth rescue (activation)” value is inactive: 16.1%.

In the case of `COCCNC(=O)/C(C#N)=C/c1ccc2c(c1)OCO2`, the “growth rescue (activation)” value is inactive: -1.46%.

Turning to `NC(=O)CSc1nc2c(c(=O)n1-c1ccccc1)C1(CCCCC1)Cc1ccccc1-2`, the “growth rescue (activation)” value is inactive: 4.14%.

As to `CCOc1ccc(C(=O)NC(C(=O)NCCc2ccc(OC(F)F)cc2)C(C)C)cc1` (stereo not drawn), the “growth rescue (activation)” value is inactive: -6.79%.

With `Cc1sc(NC(=O)Cn2c(=O)oc3ccccc32)nc1-c1ccc(Cl)cc1`, the “growth rescue (activation)” value was inactive: 6.23%.

As to `COc1ccc(CNC(=O)c2ccc3c(c2)N(Cc2ccccc2)C(=O)c2ccccc2S3(=O)=O)cc1`, the “growth rescue (activation)” value is inactive: 25.7%.

Regarding `O=C(NC1=C(Nc2ccc(Cl)cc2)C(=O)c2ccccc2C1=O)c1ccccc1`, the “growth rescue (activation)” value was inactive: 17.9%.

For the compound `CC12CCC(C(=O)N(CC(O)CN3CCN(Cc4ccccc4)CC3)C1=O)C2(C)C` (stereo not drawn), the “growth rescue (activation)” value is inactive: -3.66%.

With `COc1cccc(NC(=O)CSc2nnc(-c3cccs3)n2C)c1`, the “growth rescue (activation)” value is inactive: 5.25%.

Consider `CN1CCN(C(=O)Cn2c(C(F)(F)F)nc3ccccc32)CC1`, for which the “growth rescue (activation)” value was inactive: 27.8%.

Take `COc1ccc(N(C(=O)c2ccn[nH]2)C(C(=O)NC2CCCC2)c2ccc(F)cc2)cc1` (stereo not drawn): the “growth rescue (activation)” value is inactive: 4.78%.

Regarding `CNC(=O)C(=O)Nc1c(O)c2ccccc2[nH]c1=O`, the “growth rescue (activation)” value was inactive: -18.2%.

For the compound `Cc1cc(N2CCN(c3ccccn3)CC2)n2c(nc3ccccc32)c1C#N`, the “growth rescue (activation)” value is inactive: 4.97%.

For `CCOc1cc(S(=O)(=O)NCc2ccccc2)ccc1Br`, the “growth rescue (activation)” value is inactive: 33.7%.

As to `NC(=O)c1cc2cc(Cl)ccc2o/c1=N/NC(=O)c1cccs1`, the “growth rescue (activation)” value is inactive: -20.1%.

As for `CCc1ccc2c(CN3CCOCC3)cc(=O)oc2c1`, the “growth rescue (activation)” value was inactive: -17.2%.

As for `CN(C)S(=O)(=O)c1ccc(NC(=O)CN2C(=O)NC3(CCCC3)C2=O)cc1`, the “growth rescue (activation)” value is inactive: -1.16%.

With `C=C(C)c1cccc(C(C)(C)NC(=O)Nc2ccccc2OCC)c1`, the “growth rescue (activation)” value was inactive: 0.173%.

For `COc1cc(/C=C(/NC(=O)c2ccccc2)C(=O)N2CCOCC2)c([N+](=O)[O-])cc1OC`, the “growth rescue (activation)” value is inactive: 19%.

Take `CCCCn1c(N)c(N(CC(C)C)C(=O)CCCSc2nncs2)c(=O)[nH]c1=O`: the “growth rescue (activation)” value was inactive: 1.84%.

Take `O=C(c1ccccc1)N1CCCCC(Cl)C1=O` (stereo not drawn): the “growth rescue (activation)” value is inactive: -12.3%.

As for `Cc1ccc(NC(=O)COC(=O)C2COc3ccccc3O2)cc1S(=O)(=O)N1CCOCC1` (stereo not drawn), the “growth rescue (activation)” value was inactive: -9.95%.

With `Cc1ccc(NC(=O)CCSCCc2ccccn2)cc1`, the “growth rescue (activation)” value was inactive: 5.86%.

For the compound `Cc1ccc(CC2CC(=O)N(Cc3ccco3)C2=O)cc1` (stereo not drawn), the “growth rescue (activation)” value was inactive: 28.4%.

Regarding `CC(C)C(OC(=O)c1nsc(Cl)c1Cl)C(=O)NC(C)(C)C` (stereo not drawn), the “growth rescue (activation)” value was inactive: 11.5%.

With `Cn1c(N)c(C(=O)COC(=O)c2ccc([N+](=O)[O-])o2)c(=O)n(C)c1=O`, the “growth rescue (activation)” value is inactive: -20.1%.

As for `COc1ccc(Cl)cc1N(C(=O)c1ccco1)C(C(=O)NC1CCCC1)c1cccnc1` (stereo not drawn), the “growth rescue (activation)” value was inactive: -0.725%.

As for `COCOc1cccc(CN2CCC(C)(Oc3cccc(C#N)c3)C2)c1` (stereo not drawn), the “growth rescue (activation)” value was inactive: -0.58%.

Consider `CC(C)c1ccc(NC(=O)N2CCCC2C(=O)Nc2ccc(-n3cnnn3)cc2)cc1` (stereo not drawn), for which the “growth rescue (activation)” value is inactive: -0.2%.

With `COCCNC(=O)C1CCCN(C(=O)c2ccc3c(c2)C(C)(C)CCC3(C)C)CC1` (stereo not drawn), the “growth rescue (activation)” value is inactive: 16.6%.

As to `COc1cc(NC(=O)c2cccs2)c(C(=O)OCC(=O)NCc2ccco2)cc1OC`, the “growth rescue (activation)” value is inactive: 4.64%.

Take `Cc1c(CCC(=O)O)c(=O)oc2cc3occ(-c4ccc(Br)cc4)c3cc12`: the “growth rescue (activation)” value was inactive: -4.03%.

In the case of `COc1cc(/C=C2\C(=O)ON=C2c2ccccc2)cc(OC)c1OC`, the Potency was active: 11.2 µM.

`Nn1cc(-c2ccccc2)nc1SCC(=O)Nc1cccc(S(N)(=O)=O)c1`: the “growth rescue (activation)” value is inactive: 4.98%.

Consider `O=C(CSc1n[nH]c(-c2ccccc2)n1)NCc1cccc(C(=O)O)c1`, for which the “growth rescue (activation)” value was inactive: -2.76%.

For the compound `COc1ccc(NC(=O)c2ccc(Cn3cc(Cl)cn3)cc2)cc1`, the “growth rescue (activation)” value was inactive: -0.264%.

Regarding `CC1=C/C(=C\c2ccc(Br)o2)C(=O)O1`, the “growth rescue (activation)” value was inactive: 7%.

Turning to `CCN(CC)CCC#CC(O)(c1ccccc1)C1CCCCC1` (stereo not drawn), the “growth rescue (activation)” value is inactive: 3.56%.

Turning to `CC(=O)c1c(C)[nH]c(C(=O)OCC(=O)Nc2cccc(S(=O)(=O)N(C)C)c2)c1C`, the “growth rescue (activation)” value was inactive: 7.44%.

As to `CCC(=O)N1CCc2cc(Br)cc(S(=O)(=O)N3CCC(C(=O)NC(C)(C)C)CC3)c21`, the “growth rescue (activation)” value is inactive: -7.53%.

For the compound `CC(C)CCOP(=O)(c1ccc(N(C)C)cc1)C(O)c1ccccc1` (stereo not drawn), the “growth rescue (activation)” value is inactive: -5.53%.
